The whole screen tested about 410,000 compounds, of which about 1,200 (0.29%) were called active. Inconclusive results, whose numbers are uncertain, are shown with a selection of clear calls. Calls come from the whole dose curve; as a rule, active = well fitted activation curve with a large enough effect; inconclusive = small, poorly fitted or top-dose-only effect; inactive = flat fitted curve, though single readings scatter. Potencies of inconclusive entries are doubtful fits and often do not repeat.
Assay: qHTS of Nrf2 Activators; note: nearly all actives have a fitted effect of over 65% in size
Settings: AREc32 ARE-luciferase reporter (MCF7-derived line), luminescence, 24 h; activation: at 46.1 µM (top of the series)
Procedure, shortened: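 Nrf2 activation is followed as ARE-luciferase induction in the AREc32 line after one day of compound treatment; luminescence is read with Steady-Glo.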
Potency is the fitted concentration of half-maximal effect; tags give direction and shape of the fitted curve.

Potency, active:
Cn1c(=O)n(/N=C/c2ccccc2)c2ccccc21 11.2 µM
O=C(N=Nc1c(O)[nH]c2ccc(Br)cc12)c1ccco1 5.01 µM
N#C/C(=C(/O)c1ccco1)c1nc2ccccc2[nH]1 6.31 µM
COC(=O)c1ccc2nc(-c3ccco3)c(Cc3cccc(Cl)c3)n2c1 5.62 µM
c1ccc(-c2noc(-c3cccc4ccccc34)n2)cc1 1.58 µM
O=c1c(-c2ccco2)[n+]([O-])c2ccccc2n1OCc1c(F)cccc1F 0.708 µM
Nc1nccc(/C=C/c2c(Cl)cccc2Cl)n1 11.2 µM
Oc1ccc2c(c1)oc1cc(O)ccc12 12.6 µM
c1csc(-c2ccc3ccccc3n2)c1 17.8 µM
CC(/C=N/NC(=O)c1cccs1)=C\c1ccco1 14.1 µM

Potency, inconclusive:
O=C(/C=C/c1ccc2c(c1)OCO2)c1ccccn1 22.4 µM [activator, single point]
Cc1cc2nc(-c3ccccc3)c(Cc3ccccc3)n2c(C)c1Br 12.6 µM [activator, single point]
CC(C)(C)SCCNC(=O)c1ccc(Cl)c([N+](=O)[O-])c1 14.1 µM [activator, partial curve, poor fit]
BrC(/C=C\c1ccccc1)=N/Nc1nc(N2CCOCC2)nc(N2CCOCC2)n1 17.8 µM [activator, partial curve, poor fit]
C=C1C(=O)OC2C1C(OC(=O)C(C)=CC)CC(=C)C1C(O)C3OC3(C)C21O (centres undefined) 22.4 µM [activator, single point]
CC1(C)CC2(C)OC(=N)C1(C#N)C2(C#N)C#N (centres undefined) 31.6 µM [activator, single point]
CC(C)c1ccc(O)c(NC(=O)c2ncn[nH]2)c1 14.1 µM [activator, single point]
CCSC1=NC(C)(C)C=C(/C=C/c2ccc(Cl)cc2Cl)N1 25.1 µM [activator, single point]
CC(C)(C)OC(=O)NCCC(=O)N/N=C/c1cccc2cccnc12 10 µM [activator, partial curve, poor fit]
O=S(=O)(c1cnc(Cl)c(Cl)c1)N1CCCc2ccccc21 22.4 µM [activator, single point]
O=C(CSc1nnc(-c2cccc(Br)c2)o1)N1CCNC1=O 10 µM [activator, partial curve]
Cc1nn(C)cc1C(=O)/C=C/c1ccc([N+](=O)[O-])cc1 22.4 µM [activator, single point]
CCSc1nc(-c2ccco2)ccc1C#N 11.2 µM [activator, partial curve, poor fit]
O=C(CCCl)Nc1nc2c(s1)CCc1ccccc1-2 10 µM [activator, partial curve, poor fit]
N#Cc1ccc(/C=C/C(=O)c2ccccc2)cc1 17.8 µM [activator, single point]
O=C(CC(Nc1ccc(Cl)cc1)C(=O)O)c1ccccc1 (centres undefined) 31.6 µM [activator, single point]
COc1ccc(-c2noc(-c3ccccc3C(=O)NCc3ccco3)n2)cc1 12.6 µM [activator, partial curve, poor fit]
O=[N+]([O-])c1cccnc1SCc1ccccc1 20 µM [activator, single point]
O=[N+]([O-])c1cc(S(=O)(=O)N2CCCCCC2)ccc1Cl 20 µM [activator, single point]
Cn1c(=O)[nH]c(=O)c2c1nc([N+](=O)[O-])n2Cc1ccccc1 3.55 µM [activator, single point]
O=C(Nc1ccc(N2CCN(Cc3ccccc3F)CC2)cc1)c1ccc([N+](=O)[O-])o1 3.55 µM [activator, partial curve, poor fit]
O=C1C=CC(=Nc2cccc3c2C(=O)c2ccccc2-3)O1 3.55 µM [activator, partial curve, poor fit]
CC1CC/C(=C\c2ccc3c(c2)OCO3)C(=O)/C1=C/c1ccc2c(c1)OCO2 (centres undefined) 12.6 µM [activator, single point]
CCOC(=O)c1sc(S(C)=O)c2c1CCc1conc1-2 (centres undefined) 22.4 µM [activator, single point]
CC(C)CCNC(=O)c1cc(-c2ccco2)nc2ccccc12 10 µM [activator, partial curve, poor fit]
Brc1ccc2ncnc(NCc3ccco3)c2c1 2 µM [activator, partial curve, poor fit]
Cc1ccc2nc(N3C(=O)C(O)=C(C(=O)c4ccco4)C3c3cccs3)sc2c1 (centres undefined) 12.6 µM [activator, single point]
CC(=O)OC1CCC2(C)C(CCC3C4CC=C(C(C)=O)C4(C)OC(=O)CC32)C1 (centres undefined) 3.16 µM [activator, single point]
O=c1[nH]c(/C=C/c2ccccc2)c([N+](=O)[O-])c(=O)[nH]1 20 µM [activator, single point]
CN(C)/C=C/C(=O)/C=C/c1ccc(Cl)cc1Cl 25.1 µM [activator, single point]
CN(C)Cc1ncccc1Oc1nc2cc(-c3cccc(Cl)c3)sc2c(=O)n1C 12.6 µM [activator, partial curve]
COc1ccc(C(=O)/C=C/c2ccc(OC3CSC3)cc2)cc1OC 35.5 µM [activator, single point]
COc1cc(C2Oc3ccccc3C=C2[N+](=O)[O-])cc(OC)c1OC (centres undefined) 3.98 µM [activator, single point]
COC(=O)C1=C(C)N(C)C(=O)/C1=C\c1ccco1 1.12 µM [activator, full curve, poor fit]
Clc1ccc(Cn2c(/C=C/c3ccco3)nc3ccccc32)cc1 12.6 µM [activator, partial curve, poor fit]
CCNC(=O)COC(=O)c1cc(-c2ccco2)nc2ccccc12 15.8 µM [activator, partial curve, poor fit]
COc1ccc(-c2cc(C(F)(F)F)nc(S(=O)(=O)CCCC(=O)Nc3cccnc3Cl)n2)cc1OC 5.62 µM [activator, single point]
COc1ccc2c(c1)C(=O)CC(c1ccccc1)O2 (centres undefined) 14.1 µM [activator, single point]
CN(C)CCNC(=O)c1cc2c(=O)n(C)c3ccccc3c2n1C 22.4 µM [activator, single point]
N#Cc1cc2sc3nnc(-c4ccncc4)n3c2cc1C#N 35.5 µM [activator, single point]

Potency, inactive:
CN(c1ccc(F)cc1)S(=O)(=O)c1ccc2[nH]cc(C(=O)O)c(=O)c2c1
COc1cc(C2NC(=O)c3c(sc4c3CCN(C)C4)N2)cc(OC)c1OC (centres undefined)
CCc1nc(SCc2ccc(Br)cc2)n[nH]1
CC(C)(C)[C@H](N)C(=O)N[C@H]1CCC2C3CC=C4C[C@@H](O)CC[C@]4(C)C3CC[C@@]21C (some centres undefined)
CCC(C)c1ccc(NC(=O)c2cccnc2)cc1 (centres undefined)
OC(c1ccc(Cl)c(Cl)c1)c1ncc(-c2ccccc2F)[nH]1 (centres undefined)
COc1ccc(C[C@H]2CN3C(=NC[C@@H]3Cc3ccccc3)N2CCNC(=O)CCC2CCCCC2)cc1
Cc1onc(-c2ccccc2)c1-c1nnc(COC(=O)c2ccc(O)cc2)o1
O=C(Nc1ccccc1)C1=C[C@@H](c2ccc(Br)cc2)C[C@@H](OCc2ccc(CO)cc2)O1
S=C1NC(c2ccccc2)=CC(c2ccccc2)N1 (centres undefined)
O=C(CSc1nc2ccccc2c(=O)n1Cc1ccco1)c1ccccc1
COc1cc(C(C(=O)NC2CCCC2)N(C(=O)c2snc(C(N)=O)c2N)C2CCCC2)cc(OC)c1OC (centres undefined)
O=C(NCCCN1CCOCC1)c1cccc(S(=O)(=O)N2CCN(c3ccccc3)CC2)c1
COc1ccc(-n2ccnc2SCC(=O)Nc2ccc(F)cc2F)cc1
CC[n+]1c(/C=C/c2ccc(N(C)C)cc2)ccc2ccccc21
Cc1cc2nn(-c3ccc(Cl)cc3)nc2cc1N
CCOC(=O)c1ccc(N2C(=O)C(CC(N)=O)N(CCc3ccc(OC)c(OC)c3)C2=S)cc1 (centres undefined)
COc1ccc(CN2CCN(C(=O)c3ccc4nc(N5CCOCC5)sc4c3)CC2)c(OC)c1OC
CC(C)(C)C(=O)Oc1ccc2cc(-c3ccc4ccccc4n3)c(=O)oc2c1
COc1ccc(CN2C(=O)C(O)(CC(=O)c3ccc4c(c3)OCO4)c3ccccc32)cc1OC (centres undefined)
O=S(=O)(NCC1CN(S(=O)(=O)c2c(F)cccc2F)C1)c1ccc2c(c1)OCCO2
COc1ccccc1N1CCN(/N=C/c2cc(OC)c(O)c(OC)c2)CC1
Nc1c(C(=O)Nc2ccccc2)sc2nc(N3CCOCC3)c3c(c12)CCCC3
O=[N+]([O-])c1cc(S(=O)(=O)C(F)(F)F)ccc1N1CCN(c2ccccc2)CC1

Reference: PubChem BioAssay AID624171 (National Center for Advancing Translational Sciences (NCATS), 2012)
